PubChem BioAssay AID493208 (National Center for Advancing Translational Sciences (NCATS), 2011)
Screen size: about 44,000 compounds; about 340 (0.77%) were called active. Another 5% or so got no clear call; they are omitted. Calls come from the whole dose curve; as a rule, active = well fitted inhibition curve with a large enough effect; inconclusive = small, poorly fitted or top-dose-only effect; inactive = flat fitted curve, though single readings scatter. This is one part of the list.

Assay: Acumen qHTS Assay for Inhibitors of the mTORC1 Signaling Pathway in MEF (Tsc2-/-, p53-/-) Cells: Sytravon; note: nearly all actives have a fitted effect of over 50% in size;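 for activity change, negative = inhibition: plate controls were DMSO for no effect and rapamycin for full effect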
Settings: phospho-rpS6 immunofluorescence/PI, 24 h; series mostly up to 38.3 µM; activity change, negative = inhibition: at the top concentration
Method in brief: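 Cell-based qHTS: Tsc2-/- p53-/- MEF, 24 h cpd, 37 °C; fix/perm, anti-phospho-S6 Alexa-488 + PI; Acumen 488 nm scan; pS6/PI ratio, % positive cells; rapamycin 7.5 nM = inhibition ref; PI count = viability.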
Potency is the fitted concentration of half-maximal effect.

**Q.** Which “activity change, negative = inhibition” value does the source give for `COc1cccc(-n2c(SCC(=O)Nc3cccc(C)c3)nc3c([nH]c4ccccc43)c2=O)c1` here?
**A.** inactive: 0.187%

**Q.** With `O=C(NCc1ccc(Cl)cc1)c1cc2ccc3cccnc3c2[nH]1` as the compound, how does the “activity change, negative = inhibition” value read?
**A.** inactive: -7.05%

**Q.** With `COc1ccccc1N1CCN(S(=O)(=O)c2ccc(-c3ccno3)cc2OC)CC1` as the compound, how does the “activity change, negative = inhibition” value read?
**A.** inactive: -3.03%

**Q.** With `COc1ccc(OC)c(C2=NS(=O)(=O)N(C)C(C(=O)Nc3ccc(C(C)=O)cc3)=C2)c1` as the compound, how does the “activity change, negative = inhibition” value read?
**A.** inactive: 1.55%

**Q.** Which “activity change, negative = inhibition” value does the source give for `COc1cc(CN(C(=O)COc2ccc(Cl)cc2)c2ccccn2)cc(OC)c1OC` here?
**A.** inactive: -6.73%

**Q.** With `Cc1ccc(C)c(NC(=O)C2CCN(c3ncnc4c3nc3n4CCCCC3)CC2)c1` as the compound, how does the “activity change, negative = inhibition” value read?
**A.** inactive: -3.98%

**Q.** Which “activity change, negative = inhibition” value does the source give for `CC(C)(C)c1ccc(C(=O)NNc2ncnc3c2cnn3-c2ccc(Cl)cc2)cc1` here?
**A.** inactive: 3.3%

**Q.** With `Cc1cccc(C)c1NC(=O)NCCCN1CCN(c2ccccc2)CC1` as the compound, how does the “activity change, negative = inhibition” value read?
**A.** inactive: 0.303%

**Q.** With `CCc1ccccc1NC(=O)CC(C)S(=O)(=O)c1ccc2c(c1)NC(=O)CO2` (stereo not given) as the compound, how does the “activity change, negative = inhibition” value read?
**A.** inactive: 1.23%

**Q.** Which “activity change, negative = inhibition” value does the source give for `CCNC(=O)C1CCN(c2nc3ccccc3nc2C(F)(F)F)CC1` here?
**A.** inactive: -13.5%

**Q.** With `O=C(CSc1nc2c([nH]c3ccccc32)c(=O)n1-c1ccccc1)NCc1ccc(F)cc1` as the compound, how does the “activity change, negative = inhibition” value read?
**A.** inactive: -5.38%

**Q.** Which “activity change, negative = inhibition” value does the source give for `CCc1ccc2occ(CC(=O)Nc3nnc(C)s3)c2c1` here?
**A.** inactive: 2.78%

**Q.** With `O=C(CN1C(=O)C2(SCC(=O)N2c2ccccc2)c2ccccc21)Nc1ccccc1C(F)(F)F` (stereo not given) as the compound, how does the “activity change, negative = inhibition” value read?
**A.** inactive: -6.13%

**Q.** With `CC(=O)c1nn(-c2ccc(OC(F)(F)F)cc2)nc1Nc1ccc(Cl)cc1` as the compound, how does the “activity change, negative = inhibition” value read?
**A.** inactive: -1.5%

**Q.** For `CCOc1ccc(NC(=O)Cn2cc(S(=O)(=O)c3ccc(C)cc3)c(=O)c3cc(F)ccc32)cc1`, which “activity change, negative = inhibition” value is on record?
**A.** inactive: 0.192%

**Q.** Which “activity change, negative = inhibition” value does the source give for `COc1ccc(S(=O)(=O)N2CCC(C(=O)NC(C)c3ccccc3)CC2)cc1` (stereo not given) here?
**A.** inactive: -2.72%

**Q.** For `Cc1ccc(CN2C(=O)C(O)(CC(=O)c3ccc(C)cc3)c3ccccc32)cc1` (stereo not given), which Potency is on record?
**A.** active: 9.27 µM

**Q.** For `O=C(Nc1ccc(Br)cc1)c1cc2nc(-c3ccccc3)cc(-c3ccccc3)n2n1`, which “activity change, negative = inhibition” value is on record?
**A.** inactive: 7.41%

**Q.** For `Cc1ccc(NC(=O)c2cc(S(=O)(=O)NC3CCCCCC3)ccc2F)cc1F`, which “activity change, negative = inhibition” value is on record?
**A.** inactive: -8.49%

**Q.** Which “activity change, negative = inhibition” value does the source give for `COc1ccc2[nH]cc(CCN=C(NC(=O)c3cccc(Cl)c3)Nc3nc(C)cc(C)n3)c2c1` here?
**A.** inactive: -15%

**Q.** With `Cc1ccc(N2CC(NC(=O)CCc3ccccc3)CC2=O)cc1` (stereo not given) as the compound, how does the “activity change, negative = inhibition” value read?
**A.** inactive: -0.354%

**Q.** With `COc1ccccc1C(=O)NC(=O)Nc1ccc(-n2nc(C(F)(F)F)cc2C(F)(F)F)cc1` as the compound, how does the “activity change, negative = inhibition” value read?
**A.** inactive: -0.8%

**Q.** With `CC1=C(C(=O)NCc2ccc(Cl)cc2)C2(CCCCCC2)OC1=O` as the compound, how does the “activity change, negative = inhibition” value read?
**A.** inactive: 1.09%

**Q.** For `COc1cccc(CSc2nc3n(n2)C(c2cccnc2)C(C(=O)Nc2ccccc2C)=C(C)N3)c1` (stereo not given), which “activity change, negative = inhibition” value is on record?
**A.** inactive: -7.64%

**Q.** With `COc1ccccc1C(=O)Nc1ccc(C(=O)OCc2cc(=O)n3ccsc3n2)cc1` as the compound, how does the “activity change, negative = inhibition” value read?
**A.** inactive: 5.46%

**Q.** For `Cc1nc2cc(C(=O)O)ccc2n1-c1ccc(C(C)C)cc1`, which “activity change, negative = inhibition” value is on record?
**A.** inactive: 3.14%

**Q.** For `CCOC(=O)c1sc(NC(=O)c2cc3nc(-c4ccc(Br)cc4)cc(C(F)(F)F)n3n2)c(C(=O)OCC)c1C`, which “activity change, negative = inhibition” value is on record?
**A.** inactive: -2.57%

**Q.** For `CCOC(=O)CCn1nc(C)c2c(C)n(-c3ccccc3)nc2c1=O`, which “activity change, negative = inhibition” value is on record?
**A.** inactive: -16.6%

**Q.** For `Cc1ccc(NC(=O)c2ccc(Br)cc2)c(C(=O)c2ccccc2)c1`, which “activity change, negative = inhibition” value is on record?
**A.** inactive: 2.72%

**Q.** Which “activity change, negative = inhibition” value does the source give for `CC(C)CC(=O)Nc1ccc(Cl)c(-c2nc3ccccc3[nH]2)c1` here?
**A.** inactive: -14.5%

**Q.** For `Cc1nc2nc(SCC(=O)NCc3ccccc3)nn2c(C)c1Cc1ccccc1`, which “activity change, negative = inhibition” value is on record?
**A.** inactive: -29.1%

**Q.** With `COc1ccc(OC)c(CNC(=O)CN2C(=O)CCn3nc(-c4cn(C)c5ccccc45)cc32)c1` as the compound, how does the “activity change, negative = inhibition” value read?
**A.** inactive: 0.412%

**Q.** For `N#Cc1ccc(NS(=O)(=O)c2ccc(-c3cnc(C4CC4)o3)cc2)cc1`, which “activity change, negative = inhibition” value is on record?
**A.** inactive: 12.2%

**Q.** For `CCc1cccc(NC(=O)CN2C=NS(=O)(=O)c3ccccc32)c1`, which “activity change, negative = inhibition” value is on record?
**A.** inactive: 2.29%

**Q.** With `CCOC(=O)c1ccccc1NC(=O)N(Cc1ccco1)C1CCN(C(C)=O)CC1` as the compound, how does the “activity change, negative = inhibition” value read?
**A.** inactive: -1.25%

**Q.** With `CNC(=O)c1ccc(Nc2nnc(-c3ccc(C)c(S(=O)(=O)N4CCOCC4)c3)c3ccccc23)cc1` as the compound, how does the “activity change, negative = inhibition” value read?
**A.** inactive: 18%

**Q.** With `CCOc1nc(NC(=O)NS(=O)(=O)Oc2ccccc2Cl)nc(-c2ccccc2)n1` as the compound, how does the “activity change, negative = inhibition” value read?
**A.** inactive: 1.08%

**Q.** With `Cc1ccc(C)n1-c1nnc(N2CCCC(C(=O)NCc3ccccc3)C2)s1` (stereo not given) as the compound, how does the “activity change, negative = inhibition” value read?
**A.** inactive: -11.7%

**Q.** Which “activity change, negative = inhibition” value does the source give for `COc1cc2nc(NCC(C)c3ccccc3)n3nc(-c4ccccc4)nc3c2cc1OC` (stereo not given) here?
**A.** inactive: -2.55%

**Q.** Which “activity change, negative = inhibition” value does the source give for `Cc1ccc(N(Cc2cccs2)C(=O)COc2ccccc2[N+](=O)[O-])cc1` here?
**A.** inactive: -2.76%

**Q.** Which “activity change, negative = inhibition” value does the source give for `O=C(c1ccco1)n1nc(-c2ccccc2)nc1NCc1ccccc1Cl` here?
**A.** inactive: -2.88%

**Q.** Which “activity change, negative = inhibition” value does the source give for `CC(=O)Nc1ccc(S(=O)(=O)NCCc2csc3nc(-c4cccc(C)c4)nn23)cc1` here?
**A.** inactive: 0.0882%

**Q.** With `Cc1cccc(-c2nc(Cn3c(SCc4cc(C)ccc4C)nc4ccncc43)c(C)o2)c1` as the compound, how does the “activity change, negative = inhibition” value read?
**A.** inactive: -0.562%

**Q.** For `CCc1ccc(NC(=O)CSc2nc3ccsc3c(=O)n2C(C)CC)cc1` (stereo not given), which “activity change, negative = inhibition” value is on record?
**A.** inactive: -1.76%

**Q.** Which “activity change, negative = inhibition” value does the source give for `O=C(NCc1ccccc1)C(=O)NCC(c1cccnc1)N1CCN(c2ccccc2)CC1` (stereo not given) here?
**A.** inactive: 3.23%

**Q.** Which “activity change, negative = inhibition” value does the source give for `Cc1ccc(-c2nn3c(-c4ccc(C)cc4)nnc3c3ccccc23)cc1` here?
**A.** inactive: 1.9%

**Q.** With `COc1ccccc1-n1c(SCC(=O)Nc2ccc(C)cc2)nc(O)cc1=O` as the compound, how does the “activity change, negative = inhibition” value read?
**A.** inactive: -6.62%

**Q.** Which “activity change, negative = inhibition” value does the source give for `O=C(CCCn1c2ccccc2c(=O)c2ccccc21)Nc1ccc(F)cc1Cl` here?
**A.** inactive: -6.47%

**Q.** Which “activity change, negative = inhibition” value does the source give for `COc1cc(CN(C(=O)c2oc3ccccc3c2C)C2CCS(=O)(=O)C2)cc(OC)c1OC` (stereo not given) here?
**A.** inactive: 6.22%

**Q.** With `COc1cccc(NC(=O)c2cc3c(=O)n(Cc4cccnc4)ccc3nc2C)c1` as the compound, how does the “activity change, negative = inhibition” value read?
**A.** inactive: -8.08%

**Q.** Which “activity change, negative = inhibition” value does the source give for `COc1ccccc1CNC(=O)CCC1N=C2c3ccccc3N=C(SCC(=O)NCCc3ccc(OC)c(OC)c3)N2C1=O` (stereo not given) here?
**A.** inactive: 1.3%

**Q.** With `Cc1ccc(-c2nc(S(=O)(=O)c3ccc(C)cc3)c(SCC(=O)NC3CCCCC3)o2)cc1` as the compound, how does the “activity change, negative = inhibition” value read?
**A.** inactive: 8.26%

**Q.** For `COc1cc(NS(=O)(=O)c2ccc3oc(=O)c4ncn(C)c4c3c2)cc(OC)c1`, which “activity change, negative = inhibition” value is on record?
**A.** inactive: -2.51%

**Q.** For `COc1ccc(-c2noc(-c3ccc(NC(C)c4ccccc4)c([N+](=O)[O-])c3)n2)cc1OC` (stereo not given), which “activity change, negative = inhibition” value is on record?
**A.** inactive: 6.33%

**Q.** Which “activity change, negative = inhibition” value does the source give for `CCc1ccc(-c2cc(C)no2)cc1S(=O)(=O)Nc1ccc(Cl)cc1` here?
**A.** inactive: -18.2%

**Q.** For `CN(C)c1ccc(NC(=O)CSC2=Nc3ccccc3C3=NC(CC(=O)NCc4ccccc4)C(=O)N23)cc1` (stereo not given), which “activity change, negative = inhibition” value is on record?
**A.** inactive: 0.29%

**Q.** For `CCOc1ccccc1CN(CCc1ccc2c(c1)OCO2)Cc1cccc(OC)c1OC`, which “activity change, negative = inhibition” value is on record?
**A.** inactive: -27.5%

**Q.** Which “activity change, negative = inhibition” value does the source give for `CCOC(=O)c1c(C)[nH]c(CCC(=O)NCc2ccccc2C)c1C` here?
**A.** inactive: 3.21%

**Q.** With `COc1cc(NC(=O)C(CCS(C)(=O)=O)N2Cc3ccccc3C2=O)cc(OC)c1OC` (stereo not given) as the compound, how does the “activity change, negative = inhibition” value read?
**A.** inactive: -0.853%

**Q.** For `COc1cccc(C2CC(=O)N3CN(C4CCCCC4)CSC3=C2C#N)c1` (stereo not given), which “activity change, negative = inhibition” value is on record?
**A.** inactive: -4.82%
